Among all 410,000 compounds or so, about 6,400 (1.6%) were called active. This list was built around the results that the source calls inconclusive (neither active nor inactive); the mix of calls is not that of the screen. The call rests on the fitted dose curve; in most records, active means well fitted inhibition curve with a large enough effect; inconclusive means small, poorly fitted or top-dose-only effect; inactive means no such curve, though single readings can be large or run the other way. Potencies of inconclusive entries are left out as doubtful fits.
Target: Glucagon-like peptide 1 receptor (Homo sapiens) (UniProt P43220)
Test: qHTS of GLP-1 Receptor Inverse Agonists (Inhibition Mode); further: nearly all actives have a fitted effect of over 55% in size
Conditions: HEK293 GLP-1R CRE-luciferase, luminescence, 24 h, GLP-1R form is constitutively active; activity change, negative = inhibition: at 38.3 µM (top of the series) unless noted
Summary of the method: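 Stable HEK293 clone (constitutively active GLP-1R + cAMP-response luciferase); 200 cells/uL plated, 12 h pre-culture, compound 24 hr, 37 deg C/5% CO2; detection reagent 12 min RT; luminescence.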
On the % scale 0 is the no-effect control and ±100 the full control effect; potency means the concentration at half of the fitted maximal effect; tags describe the fitted curve by direction and shape.

Sequence of UniProt P43220 (P43220 whole entry, looked up): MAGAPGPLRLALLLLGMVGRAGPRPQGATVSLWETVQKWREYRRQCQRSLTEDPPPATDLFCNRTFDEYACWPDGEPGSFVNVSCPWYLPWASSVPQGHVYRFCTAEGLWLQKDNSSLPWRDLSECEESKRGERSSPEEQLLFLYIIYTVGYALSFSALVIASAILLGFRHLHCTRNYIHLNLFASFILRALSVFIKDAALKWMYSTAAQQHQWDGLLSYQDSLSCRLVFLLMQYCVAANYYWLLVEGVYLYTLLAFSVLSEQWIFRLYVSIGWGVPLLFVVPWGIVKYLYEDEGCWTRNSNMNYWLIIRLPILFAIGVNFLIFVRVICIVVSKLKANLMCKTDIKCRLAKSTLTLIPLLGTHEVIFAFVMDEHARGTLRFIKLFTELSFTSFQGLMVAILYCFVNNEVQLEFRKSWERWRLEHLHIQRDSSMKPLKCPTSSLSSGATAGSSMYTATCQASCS

Row | SMILES | Potency | activity change, negative = inhibition
1 | Cc1cc([N+](=O)[O-])cc(/C=N/n2c(C)nc3ccccc3c2=O)c1O | inconclusive [inhibitor, partial curve, poor fit] | –
2 | Cc1ccc(NC(=O)C(C)N2CCCc3ccccc32)cc1S(=O)(=O)N1CCOCC1 (stereo unspecified) | inconclusive [inhibitor, single point] | –
3 | CC(=O)/C(=N/Nc1ccc(Br)cc1)N1CCCc2ccccc21 | inconclusive [inhibitor, partial curve, poor fit] | –
4 | CN1CCN(c2nc(-c3cccnc3)nc3scc(-c4ccccc4)c23)CC1 | inconclusive [inhibitor, single point] | –
5 | C=C1C(O)[C@@H]2O[C@]3(CC[C@H](/C=C/C(C)[C@@H]4CC(C)=CC5(O[C@H](C[C@@](C)(O)CO)CCC5O)O4)O3)CC[C@H]2O[C@@H]1C(O)CC(C)[C@H]1OC2(CCCCO2)CCC1C (stereo partly specified) | inconclusive [inhibitor, full curve, poor fit] | –
6 | Clc1ccc(OCc2nc(-c3ccncc3)no2)c(Cl)c1 | inconclusive [inhibitor, single point] | –
7 | O=C(NC(=S)Nc1cccnc1Cl)c1ccc(Cl)cc1 | inconclusive [inhibitor, single point] | –
8 | O=C(CSc1nnc(-c2ccc(F)cc2)c2ccccc12)Nc1c(F)cccc1F | inconclusive [inhibitor, partial curve, poor fit] | –
9 | c1ccc(N2CCN(c3ncnc4sc5c(c34)CCC5)CC2)cc1 | inconclusive [inhibitor, single point] | –
10 | O=C(CN(Cc1ccccc1)S(=O)(=O)c1ccc2c(c1)OCCO2)N/N=C/c1ccc(F)cc1 | inconclusive [inhibitor, single point] | –
11 | Cc1ccc2oc(C(=O)N(Cc3cccc(F)c3)C3CCS(=O)(=O)C3)c(C)c2c1 (stereo unspecified) | inconclusive [inhibitor, single point] | –
12 | CC(Sc1nnc(C(C)N(C)C)n1-c1ccc(Cl)cc1)C(=O)Nc1ccc2c(c1)OCO2 (stereo unspecified) | inconclusive [inhibitor, single point] | –
13 | O=C(Nc1ccc(N2CCOCC2)c(Cl)c1)c1cc2ccccc2o1 | inconclusive [inhibitor, single point] | –
14 | Cc1ccc(CNC(=O)c2ccc(CS(=O)(=O)c3ccccc3)o2)cc1 | inconclusive [inhibitor, single point] | –
15 | O=C(/C=C/c1ccccc1)NC(=S)Nc1ccccc1 | inconclusive [inhibitor, single point] | –
16 | Nc1ccc(C(=O)N/N=C/c2cn(Cc3cccc(F)c3)c3ccccc23)cc1 | active: 5.01 µM | –
17 | COc1cccc(OCCCOc2ccccc2C(C)C)c1 | inconclusive [inhibitor, single point] | –
18 | c1ccc2nc(N3CCCC3)c(N3CCCCC3)nc2c1 | active: 11.2 µM | –
19 | Cc1ccccc1CNC(=O)c1ccc(Cn2c(SCc3cccc(F)c3)nc3cccnc32)cc1 | inconclusive [inhibitor, partial curve, poor fit] | –
20 | COc1ccc2c(c1)C(SCC(=O)NCCc1ccccc1)CC(C)(C)O2 (stereo unspecified) | inconclusive [inhibitor, partial curve, poor fit] | –
21 | CC1CCC(NC(=O)CCCn2sc3ccccc3c2=O)CC1 (stereo unspecified) | inconclusive [inhibitor, partial curve, poor fit] | –

Row | SMILES | Potency | activity change, negative = inhibition
22 | O=C(CCc1cn(Cc2ccccc2F)c2ccccc12)NCc1ccc(Cl)cc1 | inconclusive [inhibitor, single point] | –
23 | CCCC1=Nc2cc(C(=O)NCCCN3CCN(C)CC3)ccc2Sc2ccccc21 | inconclusive [inhibitor, partial curve, poor fit] | –
24 | COc1ccc(CNc2cccc3[nH]c(C(F)(F)F)nc23)cc1 | inconclusive [inhibitor, full curve, poor fit] | –
25 | N#CN(Cc1ccccc1)Cc1ccccc1 | inconclusive [inhibitor, partial curve, poor fit] | –
26 | Nc1c(N(CCC2=CCCCC2)C(=O)COc2ccc(F)cc2)c(=O)[nH]c(=O)n1Cc1ccccc1 | inconclusive [inhibitor, single point] | –
27 | COc1ccccc1/C=C/C(=O)N1CCN(S(=O)(=O)c2cc(C)ccc2C)CC1 | inconclusive [inhibitor, partial curve, poor fit] | –
28 | COc1cc2c(cc1Cl)C(=O)C(F)(c1ccccc1)C(=O)N2 (stereo unspecified) | inconclusive [inhibitor, partial curve, poor fit] | –
29 | CN(CC(=O)Nc1ccccc1Cl)C(=O)c1cccc(S(=O)(=O)N2CCN(c3ccc(F)cc3)CC2)c1 | inconclusive [inhibitor, partial curve, poor fit] | –
30 | C/C(NC(=O)c1ccccc1F)=C1\C(=O)C[C@@H]2[C@H]1C2(C)C | inconclusive [inhibitor, partial curve] | –
31 | CSc1ccc(CNc2ncc(-c3cccc([N+](=O)[O-])c3)n2C)cc1 | inconclusive [inhibitor, single point] | –
32 | Cc1[nH]nc2c1C(c1ccccc1)C1=C(CC(C)(C)CC1=O)N2 (stereo unspecified) | – | inactive: -0.241%
33 | CC(C)CC(=O)NCc1nc2cccnc2n1Cc1ccccc1 | – | inactive: 6.51%
34 | O=C(NCc1ccccc1)C1Cc2c(-c3ccc(Cl)cc3)ccnc2O1 (stereo unspecified) | inconclusive [inhibitor, full curve, poor fit] | –
35 | CCCCC(=O)Oc1c(S(=O)(=O)c2ccc(C)cc2)c(C)nn1C(C)(C)C | inconclusive [inhibitor, partial curve, poor fit] | –
36 | Cn1nnc2cc(NC(=O)Nc3cccc(Cl)c3)ccc21 | – | inactive: 0.247%
37 | CCN(CC)S(=O)(=O)c1ccc(N(C)Cc2cccc(OC)c2OC)nc1 | inconclusive [inhibitor, partial curve, poor fit] | –
38 | CCOC(=O)c1cc(-c2ccccc2)n(CC(=O)Nc2ccc(OC)cc2OC)c1C | – | inactive: 8.49%
39 | Cc1cc(C(=O)CCl)c(C)n1-c1cccc(S(=O)(=O)N2CCOCC2)c1 | inconclusive [inhibitor, single point] | –
40 | Cc1ccc2[nH]c3c(c2c1)CN(C(=O)CN1CCN(c2cccc(C)c2C)CC1)CC3 | inconclusive [inhibitor, partial curve, poor fit] | –
41 | CCCCOc1ccccc1NC(=O)C=C(C)C | inconclusive [inhibitor, single point] | –
42 | COc1ccc(-c2cc(C(=O)NC(C)c3ccccc3)c3cc(C(C)C)ccc3n2)cc1 (stereo unspecified) | – | inactive: 3.36%

Row | SMILES | Potency | activity change, negative = inhibition
43 | Cc1ccc(CNC(=O)Cn2c(=O)ccc3cc(S(=O)(=O)N4CCC(C)CC4)ccc32)cc1 | – | inactive: -4.37%
44 | CN1C(CC(=O)Nc2ccc(Br)cc2)c2ccccc2CC1(C)C (stereo unspecified) | inconclusive [inhibitor, partial curve, poor fit] | –
45 | O=C(NC1CC2CCCC(C1)N2C(=S)Nc1ccc(Cl)cc1)C1CC1 (stereo unspecified) | inconclusive [inhibitor, single point] | –
46 | Cc1ccc(S(=O)(=O)NCCC(c2ccccc2)c2ccco2)cc1 (stereo unspecified) | inconclusive [inhibitor, single point] | –
47 | N#C/C(=C\c1ccc(Sc2ccc(Cl)cc2)o1)c1nc2ccccc2[nH]1 | inconclusive [inhibitor, partial curve, poor fit] | –
48 | COc1ccc(CNCCCSc2nnnn2-c2ccccc2)cc1 | – | inactive: -39.8%
49 | N#Cc1ccccc1CN1C(=O)S/C(=C/c2cccn2-c2ccc(C(=O)O)cc2)C1=O | inconclusive [inhibitor, full curve, poor fit] | –
50 | CC(C)N(C(=O)CSc1nnc(C2CC2)n1C1CC1)c1ccccc1 | inconclusive [inhibitor, partial curve, poor fit] | –
51 | N#C/C(C(=O)Oc1ccccc1)=C1\C=Cc2ccccc2N1 | – | inactive: 24.1%
52 | COc1cccc2cc(/C(=N/O)c3ccc(Br)cc3)oc12 | inconclusive [inhibitor, single point] | –
53 | Cc1cccc(OCc2nc(CC(=O)Nc3ccc(C)cc3C)cs2)c1 | inconclusive [inhibitor, single point] | –
54 | CCN(CC)S(=O)(=O)c1cc(NC(=O)CN2C(=O)NC(C)(c3ccccc3)C2=O)ccc1C (stereo unspecified) | inconclusive [inhibitor, single point] | –
55 | CCN1C(=O)[C@H]2[C@@H](c3ccc(Cl)cc3)N3C(=O)CN(CCOC)C(=O)[C@@]3(C)[C@H]2C1=O | – | inactive: 11.1%
56 | O=C(Nc1ccccc1)C1=C[C@H](C2CCCCC2)C[C@H](OCCCCO)O1 | inconclusive [inhibitor, single point] | –
57 | CC(C)(CSc1ccccn1)NS(=O)(=O)c1ccc(Cl)cc1 | inconclusive [inhibitor, partial curve, poor fit] | –
58 | Cc1ccc(OCCn2c(C)nc3ccccc32)cc1 | inconclusive [inhibitor, partial curve, poor fit] | –
59 | CCOC(=O)Nc1ccc2c(c1)N(C(=O)CCN(CC)CC)c1ccccc1CC2 | inconclusive [inhibitor, single point] | –
60 | O=C(Nc1ccccc1)N(Cc1c[nH]c2ccccc12)C1CCCCCC1 | inconclusive [inhibitor, partial curve, poor fit] | –
61 | Cc1cccc(C)c1OCc1cc(C(=O)N(C)Cc2nc3ccccc3[nH]2)no1 | inconclusive [inhibitor, partial curve] | –
